Experimental data reported in publication PMC4336329 (PLoS ONE, 2015).
Out of some 310,000 compounds screened, about 2,200 (0.71%) showed an effect of 50% or more. Effects have a minus sign here. The list shows a part of the results.

target: human ether-à-go-go-related gene (hERG) potassium channel (human, UniProt Q12809); assay: primary screen, population patch clamp on CHO cells stably expressing hERG
Sequence (Q12809 whole entry, looked up): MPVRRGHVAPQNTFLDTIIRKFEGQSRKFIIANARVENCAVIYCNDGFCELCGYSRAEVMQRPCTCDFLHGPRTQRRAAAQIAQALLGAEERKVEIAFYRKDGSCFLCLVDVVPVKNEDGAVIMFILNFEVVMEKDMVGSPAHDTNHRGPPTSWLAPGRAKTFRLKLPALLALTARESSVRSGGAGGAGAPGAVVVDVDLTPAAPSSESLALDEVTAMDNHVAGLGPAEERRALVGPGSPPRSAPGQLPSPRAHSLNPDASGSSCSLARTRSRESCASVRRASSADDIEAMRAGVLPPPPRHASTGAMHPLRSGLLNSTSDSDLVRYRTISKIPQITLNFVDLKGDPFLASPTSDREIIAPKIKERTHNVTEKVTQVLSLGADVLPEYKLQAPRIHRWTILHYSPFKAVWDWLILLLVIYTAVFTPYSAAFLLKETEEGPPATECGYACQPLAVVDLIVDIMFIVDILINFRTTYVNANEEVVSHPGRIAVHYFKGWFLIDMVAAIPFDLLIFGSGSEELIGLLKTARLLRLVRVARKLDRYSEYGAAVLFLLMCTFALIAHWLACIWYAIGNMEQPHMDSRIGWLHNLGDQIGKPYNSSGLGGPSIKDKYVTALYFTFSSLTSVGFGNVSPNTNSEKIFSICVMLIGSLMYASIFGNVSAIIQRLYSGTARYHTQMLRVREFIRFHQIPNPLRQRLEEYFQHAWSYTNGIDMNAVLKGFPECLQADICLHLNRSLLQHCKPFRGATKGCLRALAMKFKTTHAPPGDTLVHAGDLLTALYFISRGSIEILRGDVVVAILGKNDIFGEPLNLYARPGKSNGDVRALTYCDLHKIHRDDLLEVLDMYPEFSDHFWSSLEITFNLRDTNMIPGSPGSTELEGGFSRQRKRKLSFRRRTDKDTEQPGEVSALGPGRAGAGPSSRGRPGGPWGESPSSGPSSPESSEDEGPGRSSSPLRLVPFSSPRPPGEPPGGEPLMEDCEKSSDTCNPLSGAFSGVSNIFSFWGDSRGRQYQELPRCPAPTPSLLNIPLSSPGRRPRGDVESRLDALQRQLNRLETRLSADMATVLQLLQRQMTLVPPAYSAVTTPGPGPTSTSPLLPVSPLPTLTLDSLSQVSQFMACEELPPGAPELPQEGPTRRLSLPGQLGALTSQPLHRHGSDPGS

In order of rising “hERG current change (%, negative = inhibition) at 1uM” value:
1. Cc1ccc(-n2cc(CN3CCC(CO)(Cc4cccc(C(F)(F)F)c4)CC3)cn2)cc1  -64.3%
2. CCOC(=O)C1(Cc2ccc(Cl)cc2)CCN(Cc2cn(CC)nc2C)CC1  -28.5%
3. COc1ccc(CN(C)CC2CCCN(CCc3ccc(F)cc3)C2)c(OC)c1OC (centres unmarked)  -15.7%
4. CN(CC(=O)Nc1cccc(F)c1)C(=O)c1ccccc1Sc1ccccc1C#N  -8.06%
5. COc1ccc(-c2cc(C(F)(F)F)n3nc(C(=O)N4CCCC4)cc3n2)cc1  -2.76%
6. O=C(NC1CCCCC1)C(c1ccco1)N(C(=O)c1csnn1)C1CCCC1 (centres unmarked)  -2.7%
7. CNC(=O)/C(=C\c1ccc([N+](=O)[O-])cc1)NC(C)=O  -2.59%
8. C#CCOCCOCCOCCNc1nc(N2CCN(C(=O)[C@H](CCCCN)n3cc([C@@H](N)CO)nn3)CC2)nc(N2CCN(C(=O)[C@H](Cc3cc4ccccc4[nH]3)n3cc([C@@H](N)Cc4ccc(O)cc4)nn3)CC2)n1.Cl  -2.32%
9. CCCC(c1nnnn1Cc1ccc(OC)cc1)N1CCC(C(N)=O)CC1.Cl (centres unmarked)  -2.15%
10. C/C=C/C(=O)N1CC2(CC(c3cccc(NC(=O)COc4ccc(Cl)cc4)c3)=NO2)C[C@@H]1C(N)=O (some centres unmarked)  -0.935%
11. CC1=CC(=O)C=CC1(C)C(Cl)(Cl)Cl (centres unmarked)  -0.359%
12. CCC(=O)Nc1nc2ccc([N+](=O)[O-])cc2s1  -0.0748%
13. COc1ccc(OC)c(NC(=S)N2CCC(C(O)(c3ccccc3)c3ccccc3)CC2)c1  -0.0702%
14. COc1ccc(C2C(C(=O)c3ccccc3)=C(C)Nc3nc4ccccc4n32)cc1OC (centres unmarked)  -0.0681%
15. Cc1ccc(S(=O)(=O)CCC(=O)NCCN2C(=O)S/C(=C/c3ccc(F)cc3)C2=O)cc1  0.236%
16. Cc1ccc(-c2nnc(SCC(=O)NC3CC3)o2)cc1  0.3%
17. CC(OC(=O)CCc1ccccc1)C(=O)Nc1ncc(Cl)cc1Cl (centres unmarked)  0.875%
18. Cc1c(C(=O)OCc2nc3ccsc3c(=O)[nH]2)oc2ccccc12  0.971%
19. CCOC(=O)/C(C#N)=C\C=C1C=CN(C)C=C1  1.78%
20. N#Cc1cccc(NC(=O)CC2CCCCC2)c1  2.05%
21. O=[N+]([O-])c1ccc(S(=O)(=O)NCC(c2cccnc2)N2CCc3ccccc3C2)cc1 (centres unmarked)  2.73%
22. O=C(COC(=O)CCc1c[nH]c2ccccc12)Nc1cc([N+](=O)[O-])ccc1Cl  2.98%
23. CC(C)CN(C(=O)CN1CCN(c2ccc([N+](=O)[O-])cc2)CC1)c1c(N)n(CC(C)C)c(=O)[nH]c1=O  3.37%
24. CCS(=O)(=O)c1nc2ccccc2n1Cc1ccccc1Cl  3.41%
25. Cc1cccc(OC(C)C(=O)Nc2cc(Cl)ccc2-n2cncn2)c1 (centres unmarked)  3.58%
26. CCOC(=O)C[C@H]1c2ccc(C(F)(F)F)cc2S(=O)(=O)N1C(C)C  3.93%
27. CN(CC(=O)NCc1ccco1)S(=O)(=O)c1cccc2cccnc12  4.06%
28. CCOC(=O)c1cc2occc2n1CC(=O)NC1CCC(C)CC1 (centres unmarked)  4.08%
29. COc1ccc(CN=Nc2cc(C)nc(NS(=O)(=O)c3ccccc3Cl)n2)cc1  4.13%
30. COc1ccc(-c2cn3c(C)c(C(=O)Nc4cccc(C)n4)sc3n2)cc1  4.49%
31. CCCCCOc1ccc(NC2=CC(=O)CCC2)cc1  5.15%
32. CCN(CC)C(=N)/C(C#N)=N/Nc1ccccc1  5.34%
33. Cc1ccc(CCCOC(=O)C[N+]2(C)CCOCC2)cc1.[I-]  5.43%
34. NC(N)=NS(=O)(=O)c1ccc(N)cc1  5.49%
35. CC1(C)OCC(COC(=O)Nc2cccnc2)([N+](=O)[O-])CO1  5.6%
36. CC(NC(=O)C1CCCC1)c1ccc2c(c1)OCCO2 (centres unmarked)  5.68%
37. Cl.O=C(Nc1ncccc1Cl)C1COc2ccccc2O1 (centres unmarked)  6.08%
38. Clc1ccccc1CSc1nncn1NC/C=C/c1ccccc1  6.23%
39. CCC/C(=N\NC(=O)c1ccc(OC)c(OC)c1)c1ccccc1  6.46%
40. O=C(NCCN1CCOCC1)NC1(C(F)(F)F)Oc2ccccc2O1  6.95%
41. C=CCn1c(CNC(=O)c2cccs2)nnc1SCC(=O)Nc1ccc(C(=O)O)cc1  7.4%
42. CCC(=O)N/N=C(\C)CC(=O)Nc1cccc([N+](=O)[O-])c1  7.54%
43. Cc1cccc(OCCn2cccc2/C=C2/C(=O)NC(=O)N(Cc3ccco3)C2=O)c1  8.15%
44. CCS(=O)(=O)c1nc(S(=O)(=O)c2ccc(Cl)cc2)c(NCc2ccccn2)s1  8.22%
45. Cc1cc(C2(c3ccc(O)c(C)c3)C(=O)N(C)c3ccc(Br)cc32)ccc1O  8.38%
46. Cn1cc(S(=O)(=O)N2CCN(c3cccc(Cl)c3)CC2)c(=O)n(C)c1=O  8.48%
47. CC(c1nccs1)N(C)C(=O)CCc1nnc(CCc2ccccc2)o1 (centres unmarked)  8.91%
48. Cc1cc(NS(=O)(=O)c2ccc(NC(=O)CCCOc3ccccc3C)cc2)nc(C)n1  9.32%
49. COc1ccc(CN(C(=O)Cc2c[nH]c3ccccc23)C(C(=O)NC2CCCCC2)c2ccc(C)o2)cc1 (centres unmarked)  9.45%
50. C=CCn1c(-c2cccnc2Cl)nc2ccccc21  9.46%
51. COC(=O)c1sc2nc(CN3CCOCC3)nc(N3CCOCC3)c2c1C  9.5%
52. CC1Cc2nc(SCC(N)=O)n(Cc3ccccc3)c(=O)c2S1 (centres unmarked)  9.58%
53. COc1ccc(CCNc2cc(C)nc(N)n2)cc1OC  9.65%
54. Brc1ccc(-c2ccc(C3Nc4cccc5cccc(c45)N3)o2)cc1  10.4%
55. CCC1C(=NO)C(CC)C(c2ccccc2)NC1c1ccccc1 (centres unmarked)  10.6%
56. NC(=O)NC(Cc1ccccc1)C(=O)NCCCSc1ccccc1 (centres unmarked)  10.9%
57. O=C(Nc1cc(S(=O)(=O)Nc2ccc(Cl)cc2)ccc1N1CCCCC1)c1ccc(F)cc1  11.1%
58. CCOC(=O)N1CCC(NC(=O)CS(=O)Cc2nc(-c3ccc(C)cc3)oc2C)CC1 (centres unmarked)  11.3%
59. CN(C)S(=O)(=O)c1ccc(Cl)c(C(=O)NCC2CCCCC2)c1  11.3%
60. COc1cc(/C=N/Nc2nc(N3CCCCC3)nc(N3CCCCC3)n2)ccc1OC(=O)c1ccco1  11.4%
61. O=C(CCCc1ccccc1)NCCc1ccccc1  11.5%
62. Cn1cccc1C(=O)NCCc1ccccc1  11.9%
63. CCC(C)Nc1nc(N)c([N+](=O)[O-])c(NCCO)n1 (centres unmarked)  12.1%
64. COc1ccc(C(=O)Nc2ccc(C(=O)Nc3nccs3)cc2)cc1[N+](=O)[O-]  12.2%
65. CCOC(=O)CNC(=O)CNC(=O)Cn1ccc2ccccc2c1=O  12.4%
66. CCOC(=O)c1c(NC(=O)CSc2c[nH]c3ccccc23)sc2c1CCC2  12.5%
67. CN(C)C(=O)c1cc(C(=O)c2ccc(F)cc2F)c[nH]1  12.6%
68. COc1cccc(Oc2nc(-c3ccccc3O)nc3ccccc23)c1  13%
69. Cc1ccc(/C=C2/SC(=Nc3ccc(F)cc3)NC2=O)s1  13%
70. Cc1cc(=O)[nH]c(N/N=C/c2ccccc2Cl)n1  13.3%
71. O=C(Cc1c(F)cccc1Cl)NC1CCN(Cc2ccccc2)CC1  13.7%
72. Cc1cccc(NC(=O)Nc2nnc(N3CCCCC3C)s2)c1C (centres unmarked)  14.2%
73. CCOC(=O)c1[nH]c(C(=O)O)c(CCC(=O)OC)c1C  14.4%
74. CCOC(=O)C(NC(=O)CC)(Nc1ccccc1)C(F)(F)F (centres unmarked)  14.6%
75. COc1ccccc1-n1cnc2sc(C)c(C)c2c1=O  15.2%
76. Cc1c(NC(=O)CN2C(=O)NC(C)(c3ccc(OC(F)F)cc3)C2=O)c(=O)n(-c2ccccc2)n1C (centres unmarked)  15.3%
77. N/C(=N\c1nc(CSc2ccccn2)cc(=O)[nH]1)Nc1ccc(Cl)cc1Cl  15.7%
78. CC1(O)C(=O)C=C2C=C(c3ccc(C#N)cc3)OC=C2C1=O (centres unmarked)  16%
79. CCN(CC)CCNC(=O)CCc1nnc2ccc(N3CCC(C)CC3)nn12  16.3%
80. Cc1[nH]c2ccccc2c1C(=O)CSc1cccc[n+]1[O-]  16.7%
81. Cc1cc(C)c(S(=O)(=O)N2CCOC2CNC(=O)C(=O)NCc2ccncc2)c(C)c1 (centres unmarked)  17.6%
82. Cc1nc(/C(N)=N/OC(=O)c2cccc(Cl)c2)c(C(F)(F)F)o1  18%
83. CN(CCC#N)C(=O)COC(=O)c1ccc2c(=O)n3c(nc2c1)CCC3  18%
84. Cc1cc(C)c(C(=O)CSc2nc3ccccc3c(=O)[nH]2)cc1C  18.1%
85. CCOC(=O)C1CCN(S(=O)(=O)c2ccc(C)cc2)CC1  21.9%
86. COC(=O)C1=C(C)OC(N)=C(C#N)C1c1cc2cc(C)ccc2nc1Cl (centres unmarked)  24.5%
